# Measured values reported in PubChem BioAssay AID493208 (National Center for Advancing Translational Sciences (NCATS), 2011).
# Screen size: about 44,000 compounds; about 340 (0.77%) were called active. Inconclusive results (about 5%) are left out. Calls follow the shape of the dose curve; as a rule, active = well fitted inhibition curve with a large enough effect; inconclusive = small, poorly fitted or top-dose-only effect; inactive = flat fitted curve, though single readings scatter. This is one part of the list.
# Experiment: Acumen qHTS Assay for Inhibitors of the mTORC1 Signaling Pathway in MEF (Tsc2-/-, p53-/-) Cells: Sytravon; also: nearly all actives have a fitted effect of over 50% in size;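 as to activity change, negative = inhibition: plate controls were DMSO for no effect and rapamycin for full effect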
# Settings: phospho-rpS6 immunofluorescence/PI, 24 h; series mostly up to 38.3 µM; activity change, negative = inhibition: at the top concentration
# Method in brief: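 Tsc2-/-, p53-/- mouse embryonic fibroblasts (empty-vector line) exposed to compound 24 hrs at 37 C, fixed, immunostained for phospho-rpS6 and counterstained with propidium iodide. Acumen laser scanning gives % positive cells from Alexa 488/PI ratio, thresholded using 7.5 nM rapamycin; PI count gives viability.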
# Potency is read from the fitted curve at half-maximal effect.
Compound,Potency,"activity change, negative = inhibition"
CCS(=O)(=O)c1oc(-c2ccc(F)cc2)nc1S(=O)(=O)c1ccc(Br)cc1,active: 2.61 µM,–
Cc1ccccc1NC(=O)CCNC(=O)Cn1ccc2ccccc2c1=O,–,inactive: 0.852%
CC(C)(C)C(=O)Nc1cccc(C(=O)OCc2cc(=O)n3nc(C4CC4)sc3n2)c1,–,inactive: 4.17%
COc1cc(NC(=O)c2cc3ccc4cccnc4c3[nH]2)cc(OC)c1OC,–,inactive: 9.8%
COc1ccccc1N1CCN(S(=O)(=O)CCNC(=O)C2CC(=O)N(c3ccccc3)C2)CC1 (stereo not drawn),–,inactive: 0.184%
CCOC(=O)c1ccc(NC(=O)CC2C(=O)N(c3ccc(C)cc3)C(=O)N2C2CCCC2)cc1 (stereo not drawn),–,inactive: -5.92%
CCOC(=O)c1ccc(NC(=O)CSc2nc(-c3cccs3)cc(C(F)(F)F)c2C#N)cc1,–,inactive: -11.8%
COC(=O)CN1C(=O)CSc2ccc(S(=O)(=O)Nc3c(C)cc(C)cc3C)cc21,–,inactive: -8.43%
CCOC(=O)N1CCc2c(sc(NCc3sccc3C)c2C(=O)Nc2cc(Cl)ccc2OC)C1,–,inactive: 2.05%
CCS(=O)(=O)c1nc(S(=O)(=O)c2ccc(C)cc2)c(NCC(C)C)s1,–,inactive: -0.0853%
CC(=O)C1=C(c2ccc(Cl)c(Cl)c2)N(C(C)=O)n2cnnc2S1,active: 14.7 µM,–
O=C1CN(C(=O)COc2ccc(Cl)cc2)C(c2ccc(F)cc2)c2cc(Br)ccc2N1 (stereo not drawn),–,inactive: -30.7%
Cc1ccc(NC(=O)N2CCN(Cc3nc4ccc(C)cc4o3)CC2)c(Cl)c1,–,inactive: 0%
Cc1cc(C)n(-c2nc(C)c(C)c(=O)n2CC(=O)Nc2ccc(Cl)c(Cl)c2)n1,–,inactive: -3.12%
COc1ccc(-c2nnc(SCC(=O)Nc3cccc(Cl)c3C)nc2-c2ccc(OC)cc2)cc1,–,inactive: 9.4%
COc1ccc(-c2cc(OC(=O)c3cccc(C)c3)c3c(C)oc(C)c3c(=O)c2)cc1,–,inactive: 4.34%
Cc1cc(C)c(NC(=O)Cn2nnc(C(=O)Nc3ccc(F)cc3F)c2N)c(C)c1,–,inactive: 4.87%
CC(=O)Nc1ccc(NC(=O)c2c(C)nn(-c3ccccc3)c2-n2cccc2)cc1,–,inactive: -2.23%
Cc1ccc(CNc2ncnc3c2cnn3-c2ccc(C)cc2C)cc1,–,inactive: -2.06%
Cc1ccc(CNC(=O)c2ccc3c(c2)nc2n3CCCC2)cc1,–,inactive: 2.31%
COc1cccc(NC(=O)c2nnn(Cc3ccc(OC)c(Br)c3)c2N)c1,–,inactive: -7.81%
CCc1nn2c(=O)cc(COC(=O)C3CCCCC3)nc2s1,–,inactive: -0.553%
CCn1cc(C(=O)NCc2ccccc2OC)c(=O)c2cc(S(=O)(=O)N3CCCCCC3)ccc21,–,inactive: 0.614%
CCOC(=O)c1cc(-c2ccccc2)n(CCCC(=O)Nc2ccc(C)cc2Cl)c1C,–,inactive: -4.53%

Compound,Potency,"activity change, negative = inhibition"
CCc1ccc(NC(=O)C2CCCN(S(=O)(=O)c3cccc4nonc34)C2)cc1 (stereo not drawn),–,inactive: 0.936%
Cc1cc(C)c(NS(=O)(=O)c2cc(-c3cnc(C4CC4)o3)ccc2C)c(C)c1,–,inactive: 29.9%
COc1ccc(CNC(=O)C2CCN(S(=O)(=O)c3ccc4nc5c(c(C(=O)O)c4c3)CC(C)CC5)CC2)cc1 (stereo not drawn),–,inactive: 0.558%
CCc1ccc(NC(=O)c2c(C(=O)Nc3ccccc3)sc3nc(C)cc(=O)n23)cc1,–,inactive: -2.78%
CN1C(=O)Cc2cc(S(=O)(=O)CCC(=O)N3CCN(c4cccc(Cl)c4)CC3)ccc21,–,inactive: -9.52%
COc1cc(-c2noc(C3CC(=O)N(c4cc(C)ccc4C)C3)n2)cc(OC)c1OC (stereo not drawn),–,inactive: -2.31%
Cc1ccsc1CCN1C(=O)N(c2ccc(F)cc2)C(=O)C1CC(=O)Nc1ccccc1 (stereo not drawn),–,inactive: -2.25%
COc1cccc(NS(=O)(=O)c2cc3c4c(c2)C(C)C(=O)N4CCC3)c1 (stereo not drawn),–,inactive: -2.08%
COc1cccc(-c2cc(C(=O)N3CCN(c4ccc(F)cc4)CC3)no2)c1,–,inactive: -6.34%
CCOc1ccc(NC(=O)Cn2cnc3c(oc4ccccc43)c2=O)cc1,–,inactive: 7.26%
CC(C)(C)OC(=O)N1CCC(c2c(C(=O)NCc3ccccn3)cnn2-c2ccc(F)cc2)CC1,–,inactive: -1.97%
COc1ccc2c(c1)c1c(c(=O)n(-c3cccc(C)c3)c(=O)n1CC(=O)N1CCCC1)n2C,–,inactive: -1.12%
Cc1cc(C)c2c(=O)cc(C(=O)Nc3ccc(S(=O)(=O)Nc4onc(C)c4C)cc3)oc2c1,–,inactive: -1.44%
Cc1ccc2c(=O)cc(C(=O)Nc3c(C(=O)c4ccccc4)oc4ccccc34)oc2c1C,–,inactive: 2.31%
CCN1C(=O)c2ccccc2Sc2ccc(NC(=O)Cc3ccc(OC)cc3)cc21,–,inactive: -6.33%
COc1ccc(-c2cc(-c3ccccc3)nc3c2COc2ccccc2-3)cc1,–,inactive: -20.8%
CCCn1cc(S(=O)(=O)c2cc(C)ccc2C)c(=O)c2cc(F)c(N3CCCCCC3)cc21,–,inactive: 1.57%
CCOc1ccc(NCc2cccn2-c2nnc(N3CCC(C(=O)NCc4cccc(OC)c4)CC3)s2)cc1,–,inactive: -1.15%
CC(C)CC(=O)Nc1nnc2n1CCS2,–,inactive: 2.58%
COc1ccc(-n2nnc(C(=O)Nc3ccccc3F)c2N)cc1,–,inactive: -19%
CCc1ccccc1N(c1nc(-c2ccc(OC)c(OC)c2)no1)c1nc(-c2ccc(OC)c(OC)c2)no1,–,inactive: 0.403%
COc1cccc(NC(=O)C(=O)NCCc2csc3nc(-c4ccccc4C)nn23)c1,–,inactive: 4.44%
CC(=O)NCc1nc2cccnc2n1Cc1ccccc1,–,inactive: -1.26%
CC(=O)c1cc(-c2ccccc2)n(CCC(=O)NCCc2ccccc2)c1C,–,inactive: -2.55%

Compound,Potency,"activity change, negative = inhibition"
COC(=O)c1c(NC(=O)c2nc(SC)ncc2Cl)sc2c1CCCC2,–,inactive: 3.52%
Cc1ccc(Cc2nc3ccccc3nc2SCC(=O)NCCc2ccccc2)cc1,–,inactive: 0.519%
Cc1cccc(CCNC(=O)c2ccc3c(c2)nc2n3CCCCC2)c1,–,inactive: 1.33%
Cc1nc2c(-c3ccc(F)cc3)c(C)nn2c(C)c1CCC(=O)N1CCN(c2ccc(F)cc2)CC1,–,inactive: -0.015%
Cc1oc(-c2cccc(Cl)c2)nc1CSc1nnc(C)n2c1cc1occc12,–,inactive: 1.83%
CCc1cccc(C)c1NC(=O)Cn1c(=O)n(-c2cccc(C)c2)c(=O)c2c1c1cc(C)ccc1n2C,–,inactive: -4.72%
COc1ccccc1N1CCN(C(=O)Cn2cnc3sc(C)c(S(=O)(=O)N4CCC(C)CC4)c3c2=O)CC1,–,inactive: -1.78%
CC(=O)c1cccc(NC(=O)C(C)n2c(=O)cc(-c3ccccc3)c3c(C)nn(C)c32)c1 (stereo not drawn),–,inactive: -5.09%
COc1cccc(CNC(=O)c2ccc(NC(=O)N3CCCCc4ccccc43)cc2)c1OC,–,inactive: -5.4%
CCOc1cccc(OCCCn2c(-c3ccc(Br)cc3)nc3ccccc3c2=O)c1,–,inactive: 2.18%
CCOc1ccc(-c2cc(-c3nc(-c4ccc(C)cc4)no3)[nH]n2)cc1,–,inactive: -2.86%
CCN1C(=O)c2ccccc2S(=O)(=O)c2ccc(C(=O)NCc3ccccc3Cl)cc21,–,inactive: 0.663%
COC(=O)CSc1ncc2c(n1)-c1ccccc1N(Cc1cccc(F)c1)S2(=O)=O,–,inactive: -5.16%
O=C(Cn1c(=O)oc2cc(S(=O)(=O)N3CCCC3)ccc21)NCc1ccc(F)cc1,–,inactive: -5.71%
CCc1cccc(C)c1NS(=O)(=O)c1c(C)nc2sccn2c1=O,–,inactive: -6.49%
CCOC(=O)C1CCN(C(=O)CSc2n[nH]c(-c3ccc(F)cc3)n2)CC1,–,inactive: 0.706%
COc1cccc(CNC(=O)c2c(C)oc3nc(C)nc(N4CCOCC4)c23)c1,–,inactive: 0.325%
Cc1cc(C(=O)C(=O)Nc2nnc(C(C)C)s2)c(C)n1-c1ccccc1,–,inactive: 0.266%
CCOC(=O)c1c(-c2ccccc2)csc1NC(=O)c1cc(-c2ccc(C)c(F)c2)on1,–,inactive: -6.79%
Cc1cccc(C(=O)Nc2ccc(OCc3cc(=O)n4ccsc4n3)cc2)c1,–,inactive: 3.07%
CCN(CC)S(=O)(=O)c1ccc2c(c1)N(CC(=O)N1CCN(c3ccc(Cl)cc3)CC1)C(=O)CO2,–,inactive: 1.81%
O=C(Cn1ccc2cc(S(=O)(=O)N3CCCCCC3)ccc21)NCCc1ccc(Cl)cc1,–,inactive: -13.3%
Cc1ccc(-n2c3c(cc(C(=O)Nc4cccc(Cl)c4)c2=O)C(=O)CC(C)(C)C3)cc1,–,inactive: -1.33%
CCN1CCN(C(=O)c2ccc3c(c2)N(Cc2ccccc2F)C(=O)c2ccccc2S3=O)CC1 (stereo not drawn),–,inactive: -4.13%

Compound,Potency,"activity change, negative = inhibition"
CCOc1ccccc1-c1nc(SCC(=O)c2ccc(OC)c(Br)c2)n[nH]1,–,inactive: -7.83%
Cc1ccc(Cl)cc1N1CCN(C(=O)CCCCCn2c(=O)[nH]c3ccccc3c2=O)CC1,–,inactive: -5.8%
CC(C)OC(=O)c1cccnc1SCC(=O)Nc1ccc(C(F)(F)F)cc1Cl,–,inactive: 9.43%
Cc1cnc(=O)[nH]c1SCC(=O)Nc1nc2ccccc2s1,–,inactive: -0.41%
Cc1ccc2oc(-c3cccc(NC(=O)c4sc5c([N+](=O)[O-])cccc5c4Cl)c3)nc2c1,–,inactive: 1.86%
O=c1c2sccc2n(Cc2cc(=O)n3ccccc3n2)c(=O)n1-c1cccc(C(F)(F)F)c1,–,inactive: -2.43%
CNS(=O)(=O)c1cc(-c2nnc(Nc3cc(C)ccc3C)c3ccccc23)ccc1C,–,inactive: 3.37%
Cc1ccc(-c2nnc(SCC(=O)NCc3ccccc3)nc2-c2ccc(C)cc2)cc1,–,inactive: 4.45%
CCOC(=O)c1cnc2ccccc2c1Nc1cccc(OC)c1,–,inactive: -0.234%
CCc1ccc(C(=O)NC(Cc2c[nH]c3ccccc23)C(=O)OCC(=O)c2ccc(Br)cc2)cc1 (stereo not drawn),–,inactive: 1.01%
Cc1cc2c(cc3c(SCC(=O)Nc4cccc(Cl)c4C)nnc(C)n32)o1,–,inactive: -9.67%
Cc1cc(-c2ccc(C)c(S(=O)(=O)Nc3cccc(C#N)c3)c2)on1,–,inactive: 10.3%
CCOc1ccc(CCNC(=O)c2c(C)oc3ncn(C)c(=O)c23)cc1,–,inactive: 1.03%
CC(C)CCOc1ccccc1Cn1c(=O)sc2ccccc21,–,inactive: -3.11%
Cc1ccccc1NS(=O)(=O)c1ccc2[nH]c3c(c2c1)CCCCC3,–,inactive: -17.4%
CCOC(=O)c1cc(-c2ccccc2)n(CCC(=O)Nc2nc3c(C)cccc3s2)c1C,–,inactive: -6.19%
CCc1ccc(-n2c(=O)c3c(C)c(C(=O)N(C)C)sc3n(Cc3ccccc3F)c2=O)cc1,–,inactive: -8.42%
CCOc1ccccc1CNC(=O)CCn1ccc2cc(S(=O)(=O)N3CCCCC3)ccc21,–,inactive: -8.93%
Cn1c(=O)c2sccc2n2c(CCCC(=O)Nc3ccc(Oc4ccc(Cl)cc4)cc3)nnc12,–,inactive: 0%
Cc1ccc(-c2cc3c(N4CCN(c5cc(C)ccc5C)CC4)nccn3n2)cc1,–,inactive: 2.24%
CC(=O)N1c2c(cc(Br)cc2S(=O)(=O)N2CCN(c3ccccc3)CC2)CC1C (stereo not drawn),–,inactive: -12%
